B1: Construct 16: maize construct: 12G088600TP (SEQ ID NO:38) operably linked to PPO H_N10 (SEQ ID NO:43) (protein, listed as Gossypium raimondii, listed as Escherichia coli)
chain: MLNIAPSCVLASGISKPVTKMASTENKDDHSSAKRMKTLILFSTRDGQTREIASYLASELKELGIQADVANVHRIEEPQWENYDRVVIGASIRYGHYHSAFQEFVKKHATRLNSMPSAFYSVNLVARKPEKRTPQTNSYARKFLMNSQWRPDRCAVIAGALRYPRYRWYDRFMIKLIMKMSGGETDTRKEVVYTDWEQVANFAREIAHLTDKPTLK
B2: APG6: Arabidopsis thaliana albino and pale green (APG6) chloroplast transit peptide, SEQ ID NO:1, tested linked to DMO or PPO (protein, listed as Arabidopsis thalinana)
chain: MATATTTATAAFSGVVSVGTETRRIYSFSHLQPSAAFPAKPSSFKSLKLKQSARLTRRLDHRPFVVRC
B3: Construct 6: maize construct: APG6 (SEQ ID NO:1) operably linked to PPO H_N10 (SEQ ID NO:43) (protein, listed as Arabidopsis thalinana, listed as Escherichia coli)
chain: MATATTTATAAFSGVVSVGTETRRIYSFSHLQPSAAFPAKPSSFKSLKLKQSARLTRRLDHRPFVVRCMKTLILFSTRDGQTREIASYLASELKELGIQADVANVHRIEEPQWENYDRVVIGASIRYGHYHSAFQEFVKKHATRLNSMPSAFYSVNLVARKPEKRTPQTNSYARKFLMNSQWRPDRCAVIAGALRYPRYRWYDRFMIKLIMKMSGGETDTRKEVVYTDWEQVANFAREIAHLTDKPTLK

Legend:
[1] = system: transgenic Brassica napus plants; test: Dicamba tolerance in R0 Brassica napus, greenhouse; conditions: R0 plants with one copy of the transgene; dicamba 1 lb ae/acre; 14 to 21 days
Protocol: Transgenic Brassica napus plants were produced using three different plant transformation vectors each comprising a DNA construct containing one of three different CTPs operably linked to DMO operably linked to a promoter. Brassica napus variety 65037 Restorer line was used for Agrobacterium-mediated transformation and R0 plants were grown in the greenhouse. Unique events were screened for the copy number of the transgene. R0 plants with one copy of the transgene were selfed and R1 seed collected.
Dicamba tolerance was assessed using R0 plants with one copy of transgene with vector backbone or two copies of transgene. Dicamba tolerance was designated as dicamba injury of 20% or less under greenhouse conditions. R0 events in pots were divided into three groups and dicamba (Clarity®) was applied at one of three rates: (1) no dicamba, (2) 1 lb ae/acre dicamba (2× rate), or (3) 2 lb ae/acre dicamba (4× rate). Transgenic plants were sprayed and injury ratings were recorded 21 days later.
Dicamba tolerance was assessed on R0 plants with a one copy of the transgene. Plants were sprayed in the greenhouse with dicamba (Clarity) at 1 lb ae/acre (2× rate), and dicamba tolerance was determined 14 to 21 days later.

[2] = system: transgenic F1 maize plants expressing H_N10; test: Efficacy field trial of F1 maize containing PPO H_N10 (S-3100); type: in vivo
Protocol: This F1 population was segregating (50% hemizygous and 50% null) and selection for transgenic plants was not conducted prior to injury ratings. The overall average injury ratings for such a population are expected to be higher than a homogenous transgenic population since it is difficult to discern non-transgenic plants from transgenic plants. The trials were conducted at two locations with two replicates and 3 treatments per construct. Non-transgenic maize plants were used as a negative control. The herbicide application treatments were as follows: Treatment 1 was 0.036 lb ai/acre S-3100 applied at V2 followed by (fb) V4 fb V8; Treatment 2: was 0.072 lb ai/acre S-3100 applied at V2 fb V4 fb V8; Treatment 3: was 0.144 lb ai/acre S-3100 applied at V2 fb V4 fb V8. Crop Injury Percent ratings were assessed at the V2 growth stage (CIPV2) and at the V4 growth stage (CIPV4) at 5 to 7 days after treatment (the error V2 and error V4 are half of the least significant difference (LSD)). The crop injury ratings were combined for both locations.

[3] = system: transgenic F1 maize plants expressing H_N10; test: F1 maize greenhouse S-3100 tolerance; type: in vivo; conditions: 40 grams/ha S-3100 at V3; rated seven days after treatment
Protocol: For maize in planta testing, maize (LH244) was transformed using Agrobacterium tumefaciens and standard methods known in the art. […] The plants were treated with 40 grams/ha S-3100 at the V3 growth stage and injury ratings were taken seven days after treatment.

[4] = Trt 1: 0.036 lb ai/acre S-3100 at V2 fb V4 fb V8
[5] = Trt 1: 0.036 lb ai/acre S-3100 at V2 fb V4 fb V8, segregating F1, 5 to 7 days after treatment
[6] = Trt 2: 0.072 lb ai/acre S-3100 at V2 fb V4 fb V8
[7] = Trt 3: 0.144 lb ai/acre S-3100 at V2 fb V4 fb V8

Molecule	2X Tolerant events [1]	CIPV4 [2, 4] [%]	CIPV2 [2, 5] [%]	CIPV2 [2, 6] [%]	CIPV4 [2, 6] [%]	CIPV2 [2, 7] [%]	CIPV4 [2, 7] [%]	events producing highly tolerant plants (10% or less injury) [3]
RbcS (SEQ ID NO: 5): Ps.RbcS-3C chloroplast transit peptide, SEQ ID NO:5 (MASMISSSAVTTVSRASRGQSAAMAPFGGLKSMTGFPVRKVNTDITSITSNGGRVKC; listed as Pisum sativum) [reference compound]	13/17							
B1		98.5	96.3	99.5	99.5	99.5	99.5	no events
B2	13/31							
B3		0	37.5	37.5	0	50	0	13 out of 18
